# Reference: paper PMC5700166
# The list shows a part of the results, in another mix than the full data. The list includes weakly bound sequences.
# Assays:
# [1] = target: T1, GST-Nv-NF-kB (Cys allele) (UniProt E5G601); experiment: protein-binding microarray (PBM); conditions: PBM: ~300 nM protein, 6 mM HEPES pH 7.8, 80 mM KCl, 0.5 mM EDTA, 0.5 mM EGTA, 6% glycerol, 35 ng/ul poly-dIdC, 1% milk, 1 h, room temperature; high values mean tight binding; double strand, one strand shown
# T1 sequence: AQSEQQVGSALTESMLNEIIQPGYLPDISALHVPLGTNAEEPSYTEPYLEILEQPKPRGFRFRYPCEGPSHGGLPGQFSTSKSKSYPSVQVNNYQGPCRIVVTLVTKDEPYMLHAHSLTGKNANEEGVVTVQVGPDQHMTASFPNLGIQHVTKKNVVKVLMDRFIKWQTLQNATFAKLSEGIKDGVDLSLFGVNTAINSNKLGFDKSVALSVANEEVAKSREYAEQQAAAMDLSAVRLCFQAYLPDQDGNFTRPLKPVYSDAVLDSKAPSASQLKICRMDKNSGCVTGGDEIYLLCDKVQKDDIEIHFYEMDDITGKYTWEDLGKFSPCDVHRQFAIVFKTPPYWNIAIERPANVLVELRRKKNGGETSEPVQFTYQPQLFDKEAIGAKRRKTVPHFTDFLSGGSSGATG
# GST-Co-NF-kB = target: T2, GST-Co-NF-kB (UniProt F1ARL5); experiment: protein-binding microarray (PBM); conditions: PBM: ~300 nM protein, 6 mM HEPES pH 7.8, 80 mM KCl, 0.5 mM EDTA, 0.5 mM EGTA, 6% glycerol, 35 ng/ul poly-dIdC, 1% milk, 1 h, room temperature; Ap Aiptasia and Nv Nematostella (sea anemones) / Co Capsaspora / Aq Amphimedon (sponge) / Dm Drosophila / Hu human; RHD is the Rel homology domain; high values mean tight binding; most listed sequences are background and not binding sites; double strand, one strand shown
# T2 sequence: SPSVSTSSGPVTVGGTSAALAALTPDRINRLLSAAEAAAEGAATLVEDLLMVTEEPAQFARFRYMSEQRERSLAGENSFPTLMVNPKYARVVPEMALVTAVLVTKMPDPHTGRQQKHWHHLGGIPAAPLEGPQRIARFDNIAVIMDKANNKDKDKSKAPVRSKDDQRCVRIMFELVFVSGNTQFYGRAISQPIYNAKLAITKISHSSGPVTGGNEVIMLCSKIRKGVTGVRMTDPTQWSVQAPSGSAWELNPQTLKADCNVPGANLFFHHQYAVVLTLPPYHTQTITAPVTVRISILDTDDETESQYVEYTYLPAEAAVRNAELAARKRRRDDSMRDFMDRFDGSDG
Sequence,binding signal [1] [z-score],binding signal (GST-Co-NF-kB) [z-score]
CCGATTAACATCAGGGGAGAATATGATGTTAATCGGGTCTTGATTCGCTTGACGCTGCTG,5.42,
CCGATTAACATCAAAACAGTCCCTGATGTTAATCGGGTCTTGATTCGCTTGACGCTGCTG,5.79,
CCGATTAACATCAATATACCCCCTGATGTTAATCGGGTCTTGATTCGCTTGACGCTGCTG,4.24,6.57
CCGATTAACATCAAATTCCCGCCTGATGTTAATCGGGTCTTGATTCGCTTGACGCTGCTG,4.23,
CCGATTAACATCAAGTATTCCCCTGATGTTAATCGGGTCTTGATTCGCTTGACGCTGCTG,9.28,7.58
CCGATTAACATCAAATATCCCCATGATGTTAATCGGGTCTTGATTCGCTTGACGCTGCTG,6.83,
CCGATTAACATCACGGGAATTTCTGATGTTAATCGGGTCTTGATTCGCTTGACGCTGCTG,7.5,
CCGATTAACATCAGGGGAAAGGATGATGTTAATCGGGTCTTGATTCGCTTGACGCTGCTG,5.7,
CCGATTAACATCAACAAAATCCCTGATGTTAATCGGGTCTTGATTCGCTTGACGCTGCTG,3.64,1.89
CCGATTAACATCACTTCCCCCCATGATGTTAATCGGGTCTTGATTCGCTTGACGCTGCTG,4.18,
CCGATTAACATCAGTACTCCCCATGATGTTAATCGGGTCTTGATTCGCTTGACGCTGCTG,2.81,
CCGATTAACATCACAATATCCCCTGATGTTAATCGGGTCTTGATTCGCTTGACGCTGCTG,6.58,
CCGATTAACATCAGATAATCCCCTGATGTTAATCGGGTCTTGATTCGCTTGACGCTGCTG,8.93,
CCGATTAACATCAGGGACTCCCATGATGTTAATCGGGTCTTGATTCGCTTGACGCTGCTG,4.05,
CCGATTAACATCACGGGGAGTCCTGATGTTAATCGGGTCTTGATTCGCTTGACGCTGCTG,3.95,4.24
CCGATTAACATCAGGGACTTTAATGATGTTAATCGGGTCTTGATTCGCTTGACGCTGCTG,5.92,
CCGATTAACATCAAGGAATACCCTGATGTTAATCGGGTCTTGATTCGCTTGACGCTGCTG,5.51,
CCGATTAACATCAGGGGACGCACTGATGTTAATCGGGTCTTGATTCGCTTGACGCTGCTG,4.2,
CCGATTAACATCAAATAACCCCCTGATGTTAATCGGGTCTTGATTCGCTTGACGCTGCTG,7.1,
CCGATTAACATCAAATTTCCCGATGATGTTAATCGGGTCTTGATTCGCTTGACGCTGCTG,4.4,
CCGATTAACATCACCCGTTTCCCTGATGTTAATCGGGTCTTGATTCGCTTGACGCTGCTG,3.24,
CCGATTAACATCAAAAATTTCCCTGATGTTAATCGGGTCTTGATTCGCTTGACGCTGCTG,8.92,
CCGATTAACATCAGGGGATGTTATGATGTTAATCGGGTCTTGATTCGCTTGACGCTGCTG,6.43,3.17
CCGATTAACATCAAGTCCCCCCCTGATGTTAATCGGGTCTTGATTCGCTTGACGCTGCTG,4.81,

Sequence,binding signal [1] [z-score],binding signal (GST-Co-NF-kB) [z-score]
CCGATTAACATCAAAACAACCCCTGATGTTAATCGGGTCTTGATTCGCTTGACGCTGCTG,3.44,2.54
CCGATTAACATCAAATACTCCCCTGATGTTAATCGGGTCTTGATTCGCTTGACGCTGCTG,5.48,
CCGATTAACATCAGGACAGTCCCTGATGTTAATCGGGTCTTGATTCGCTTGACGCTGCTG,5.23,0.841
CCGATTAACATCAAATGCCCCCCTGATGTTAATCGGGTCTTGATTCGCTTGACGCTGCTG,4.38,
CCGATTAACATCAAGGGTATTCCTGATGTTAATCGGGTCTTGATTCGCTTGACGCTGCTG,5.81,
CCGATTAACATCAGGAATAACCCTGATGTTAATCGGGTCTTGATTCGCTTGACGCTGCTG,2.62,0.267
CCGATTAACATCAGGGGACGGGATGATGTTAATCGGGTCTTGATTCGCTTGACGCTGCTG,3.92,
CCGATTAACATCATTTGGGAAAATGATGTTAATCGGGTCTTGATTCGCTTGACGCTGCTG,3.26,
CCGATTAACATCAGGGGGAACCATGATGTTAATCGGGTCTTGATTCGCTTGACGCTGCTG,6.04,8.58
CCGATTAACATCAGGGGGATTCATGATGTTAATCGGGTCTTGATTCGCTTGACGCTGCTG,7.43,
CCGATTAACATCAGGGGGATAACTGATGTTAATCGGGTCTTGATTCGCTTGACGCTGCTG,4.96,
CCGATTAACATCAAATTCCCACATGATGTTAATCGGGTCTTGATTCGCTTGACGCTGCTG,3.53,
CCGATTAACATCACGGGAAGCCCTGATGTTAATCGGGTCTTGATTCGCTTGACGCTGCTG,1.91,0.82
CCGATTAACATCAGAAAGTCCCATGATGTTAATCGGGTCTTGATTCGCTTGACGCTGCTG,7.09,0.851
CCGATTAACATCACGGAGATCCCTGATGTTAATCGGGTCTTGATTCGCTTGACGCTGCTG,0.437,0.253
CCGATTAACATCACGGGATTGCCTGATGTTAATCGGGTCTTGATTCGCTTGACGCTGCTG,0.472,0.862
CCGATTAACATCAAAATATTCCCTGATGTTAATCGGGTCTTGATTCGCTTGACGCTGCTG,7.36,4.81
CCGATTAACATCAAGGAAGTCCCTGATGTTAATCGGGTCTTGATTCGCTTGACGCTGCTG,5.94,0.929
CCGATTAACATCAGGATATCCCCTGATGTTAATCGGGTCTTGATTCGCTTGACGCTGCTG,7.01,3.66
CCGATTAACATCAGGAATTCCTATGATGTTAATCGGGTCTTGATTCGCTTGACGCTGCTG,0.117,0.332
CCGATTAACATCACTTTTTCCCATGATGTTAATCGGGTCTTGATTCGCTTGACGCTGCTG,3.6,4.08
CCGATTAACATCAGGGGAAATTATGATGTTAATCGGGTCTTGATTCGCTTGACGCTGCTG,10.5,9.24
CCGATTAACATCAAATTTCCCCTTGATGTTAATCGGGTCTTGATTCGCTTGACGCTGCTG,10.8,7.98
CCGATTAACATCAGGGGAAGTCATGATGTTAATCGGGTCTTGATTCGCTTGACGCTGCTG,7.2,4.69
